Experimental data reported in the supplement of paper PMC8728848.
The list shows a part of the results.

Assays:
Test in all cases: glycan array binding signal (z-score within array); higher = stronger binding
Conditions in all cases: glycan notation: IUPAC condensed, linker removed
[1] = target: Neu5Ac(a2-6)Gal(b1-4)GlcNAc(b1-2)Man(a1-3)[GlcNAc(b1-4)][Neu5Ac(a2-6)Gal(b1-4)GlcNAc(b1-2)Man(a1-6)]Man(b1-4)GlcNAc(b1-4)GlcNAc
Procedure, shortened: (§1)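 The binding signal is a Z-score computed within each array and averaged over linkers. Arrays of the same protein sequence at different concentrations or buffers were also averaged together. Data originate from 3228 arrays in the Consortium for Functional Glycomics database, kept only where the protein sequence was available.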

[2] = target: Neu5Ac(a2-6)Gal(b1-4)GlcNAc(b1-2)Man(a1-3)[Man(a1-6)]Man(b1-4)GlcNAc(b1-4)GlcNAc
Procedure, shortened: as §1

[3] = target: Neu5Ac(a2-6)Gal(b1-4)GlcNAc(b1-2)Man(a1-3)[Neu5Ac(a2-3)Gal(b1-4)GlcNAc(b1-2)Man(a1-6)]Man(b1-4)GlcNAc(b1-4)GlcNAc
Procedure, shortened: as §1

[4] = target: Neu5Ac(a2-6)Gal(b1-4)GlcNAc(b1-2)Man(a1-3)[Neu5Ac(a2-6)Gal(b1-4)GlcNAc(b1-2)Man(a1-6)]Man(b1-4)GlcNAc(b1-4)GlcNAc
Procedure, shortened: as §1

[5] = target: Neu5Ac(a2-6)Gal(b1-4)GlcNAc(b1-2)Man(a1-3)[Neu5Ac(a2-6)Gal(b1-4)GlcNAc(b1-2)Man(a1-6)]Man(b1-4)GlcNAc(b1-4)[Fuc(a1-6)]GlcNAc
Procedure, shortened: as §1

[6] = target: Neu5Ac(a2-6)Gal(b1-4)GlcNAc(b1-2)Man(a1-6)Man(b1-4)GlcNAc(b1-4)GlcNAc
Procedure, shortened: as §1

[7] = target: Neu5Ac(a2-6)Gal(b1-4)GlcNAc(b1-2)Man(a1-6)[Gal(b1-4)GlcNAc(b1-2)Man(a1-3)]Man(b1-4)GlcNAc(b1-4)GlcNAc
Procedure, shortened: as §1

[8] = target: Neu5Ac(a2-6)Gal(b1-4)GlcNAc(b1-2)Man(a1-6)[GlcNAc(b1-2)Man(a1-3)]Man(b1-4)GlcNAc(b1-4)GlcNAc
Procedure, shortened: as §1

[9] = target: Neu5Ac(a2-6)Gal(b1-4)GlcNAc(b1-2)Man(a1-6)[Man(a1-3)]Man(b1-4)GlcNAc(b1-4)GlcNAc
Procedure, shortened: as §1

[10] = target: Neu5Ac(a2-6)Gal(b1-4)GlcNAc(b1-2)[Neu5Ac(a2-6)Gal(b1-4)GlcNAc(b1-4)]Man(a1-3)[GlcNAc(b1-4)][Neu5Ac(a2-6)Gal(b1-4)GlcNAc(b1-2)[Neu5Ac(a2-6)Gal(b1-4)GlcNAc(b1-6)]Man(a1-6)]Man(b1-4)GlcNAc(b1-4)GlcNAc
Procedure, shortened: as §1

[11] = target: Neu5Ac(a2-6)Gal(b1-4)GlcNAc(b1-2)[Neu5Ac(a2-6)Gal(b1-4)GlcNAc(b1-4)]Man(a1-3)[GlcNAc(b1-4)][Neu5Ac(a2-6)Gal(b1-4)GlcNAc(b1-4)Man(a1-6)]Man(b1-4)GlcNAc(b1-4)GlcNAc
Procedure, shortened: as §1

[12] = target: Neu5Ac(a2-6)Gal(b1-4)GlcNAc(b1-2)[Neu5Ac(a2-6)Gal(b1-4)GlcNAc(b1-6)]Man(a1-6)[Neu5Ac(a2-6)Gal(b1-4)GlcNAc(b1-2)Man(a1-3)][GlcNAc(b1-4)]Man(b1-4)GlcNAc(b1-4)GlcNAc
Procedure, shortened: as §1

[13] = target: Neu5Ac(a2-6)Gal(b1-4)GlcNAc(b1-3)Gal(b1-3)GlcNAc
Procedure, shortened: as §1

[14] = target: Neu5Ac(a2-6)Gal(b1-4)GlcNAc(b1-3)Gal(b1-4)GlcNAc
Procedure, shortened: as §1

[15] = target: Neu5Ac(a2-6)Gal(b1-4)GlcNAc(b1-3)Gal(b1-4)GlcNAc(b1-2)Man(a1-3)[Neu5Ac(a2-6)Gal(b1-4)GlcNAc(b1-3)Gal(b1-4)GlcNAc(b1-2)Man(a1-6)]GalNAc
Procedure, shortened: as §1

[16] = target: Neu5Ac(a2-6)Gal(b1-4)GlcNAc(b1-3)Gal(b1-4)GlcNAc(b1-3)Gal(b1-4)GlcNAc
Procedure, shortened: as §1

[17] = target: Neu5Ac(a2-6)Gal(b1-4)GlcNAc(b1-3)Gal(b1-4)GlcNAc(b1-3)Gal(b1-4)GlcNAc(b1-2)Man(a1-3)[Neu5Ac(a2-6)Gal(b1-4)GlcNAc(b1-3)Gal(b1-4)GlcNAc(b1-3)Gal(b1-4)GlcNAc(b1-2)Man(a1-6)]GalNAc
Procedure, shortened: as §1

[18] = target: Neu5Ac(a2-6)Gal(b1-4)GlcNAc(b1-3)Gal(b1-4)GlcNAc(b1-3)GalNAc
Procedure, shortened: as §1

[19] = target: Neu5Ac(a2-6)Gal(b1-4)GlcNAc(b1-3)Gal(b1-4)GlcNAc(b1-3)[Neu5Ac(a2-6)Gal(b1-4)GlcNAc(b1-3)Gal(b1-4)GlcNAc(b1-6)]GalNAc
Procedure, shortened: as §1

[20] = target: Neu5Ac(a2-6)Gal(b1-4)GlcNAc(b1-3)Gal(b1-4)GlcNAc(b1-6)[Gal(b1-3)]GalNAc
Procedure, shortened: as §1

[21] = target: Neu5Ac(a2-6)Gal(b1-4)GlcNAc(b1-3)Gal(b1-4)[Fuc(a1-3)]GlcNAc(b1-3)Gal(b1-4)[Fuc(a1-3)]GlcNAc
Procedure, shortened: as §1

[22] = target: Neu5Ac(a2-6)Gal(b1-4)GlcNAc(b1-3)GalNAc
Procedure, shortened: as §1

[23] = target: Neu5Ac(a2-6)Gal(b1-4)GlcNAc(b1-3)[Neu5Ac(a2-6)Gal(b1-4)GlcNAc(b1-6)]GalNAc
Procedure, shortened: as §1

[24] = target: Neu5Ac(a2-6)Gal(b1-4)GlcNAc(b1-6)GalNAc
Procedure, shortened: as §1

[25] = target: Neu5Ac(a2-6)Gal(b1-4)GlcNAc(b1-6)[Gal(b1-3)GlcNAc(b1-3)]Gal(b1-4)Glc
Procedure, shortened: as §1

[26] = target: Neu5Ac(a2-6)Gal(b1-4)GlcNAc(b1-6)[Gal(b1-3)]GalNAc
Procedure, shortened: as §1

[27] = target: Neu5Ac(a2-6)Gal(b1-4)GlcNAc6S
Procedure, shortened: as §1

Neu5Ac(a2-6)GalNAc = target: Neu5Ac(a2-6)GalNAc
Procedure, shortened: as §1

[28] = target: Neu5Ac(a2-6)GalNAc(b1-4)GlcNAc
Procedure, shortened: as §1

[29] = target: Neu5Ac(a2-6)GalNAc(b1-4)GlcNAc6S
Procedure, shortened: as §1

[30] = target: Neu5Ac(a2-6)GlcNAc(b1-4)GlcNAc
Procedure, shortened: as §1

B1: CpGal16 (Clavelina picta) (protein)
chain: MAKMITNYVGKRIECIMVATDMMSTVFSLASATGDLPFYINFRQRENSIVMNTRVHGKWQYEKSQSSGGMNFYEPFRLVVEVRPSVFKVTVSTMGEEDGITFNLQYSQITIKPDEIVAMHLGYCNLRSELLVTDL
glycan array binding signal (z-score) [1]: -0.437 | glycan array binding signal (z-score) [2]: -0.395 | glycan array binding signal (z-score) [3]: -0.252 | glycan array binding signal (z-score) [4]: -0.174 | glycan array binding signal (z-score) [5]: -0.05 | glycan array binding signal (z-score) [6]: -0.39 | glycan array binding signal (z-score) [7]: -0.473 | glycan array binding signal (z-score) [8]: -0.424 | glycan array binding signal (z-score) [9]: -0.382 | glycan array binding signal (z-score) [10]: -0.407 | glycan array binding signal (z-score) [11]: -0.326 | glycan array binding signal (z-score) [12]: -0.39 | glycan array binding signal (z-score) [13]: -0.382 | glycan array binding signal (z-score) [14]: -0.442 | glycan array binding signal (z-score) [15]: -0.175 | glycan array binding signal (z-score) [16]: -0.379 | glycan array binding signal (z-score) [17]: 0.523 | glycan array binding signal (z-score) [18]: -0.48 | glycan array binding signal (z-score) [19]: 0.087 | glycan array binding signal (z-score) [20]: -0.287 | glycan array binding signal (z-score) [21]: -0.419 | glycan array binding signal (z-score) [22]: -0.29 | glycan array binding signal (z-score) [23]: -0.409 | glycan array binding signal (z-score) [24]: -0.02 | glycan array binding signal (z-score) [25]: 0.24 | glycan array binding signal (z-score) [26]: -0.336 | glycan array binding signal (z-score) [27]: -0.303 | glycan array binding signal (z-score) (Neu5Ac(a2-6)GalNAc): -0.443 | glycan array binding signal (z-score) [28]: -0.561 | glycan array binding signal (z-score) [29]: -0.353 | glycan array binding signal (z-score) [30]: -0.39
